The source of these data is article PMC12040169 (PLOS Biology, 2025).

Some of the results follow.

The assay relates to T1, C. trachomatis L2/434/Bu expressing GFP (CTL2-GFP).
T1 construct: L2/434/Bu GFP intracellular growth in HeLa cells
More on the design: species or system HeLa; C. trachomatis total inclusion area by high-content imaging, normalised to DMSO. Particulars: total inclusion area; 28.5 h, 10 µM; inhibitor. The essentials: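 Imaging read-out: GFP inclusions and Hoechst nuclei captured by high-content imaging after fixation. Inclusion area/number = chlamydial growth; nuclei count = host cell viability. MIC calculated per earlier method.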
Consider `Cc1nsc2c1[C@H]1[C@H](O)[C@H](O)C[C@H]1C1(CCC1)N2` [CBK303258], for which the “% of control remaining” value is given as 72.0354.

Consider `COc1cc(C=CC(=O)O)ccc1OCC(=O)NCC(C)C` [CBK296721], for which the “% of control remaining” value stood at 106.803.

Regarding `CCc1nnc(CN(CC2CCCO2)C2CCC(C)CC2)n1C` (stereo not shown) [CBK304475], the “% of control remaining” value worked out at 106.238.

Take `COc1cc2nc(NC(=O)c3ccccc3)sc2cc1OC` [CBK287701]: the “% of control remaining” value was 86.7418.

As for `C=CCOC(=O)C1=C(C)OC(N)=C(C(=O)OCc2ccccc2)C12C(=O)Nc1ccccc12` (stereo not shown) [CBK262527], the “% of control remaining” value was determined as 62.4241.

As to `CC(C)CCn1c(=O)c(C(=O)Nc2ccccc2S(N)(=O)=O)c(O)c2ccccc21` [CBK262294], the “% of control remaining” value was found to be 80.4103.

Regarding `CCOC(=O)c1ccccc1NS(=O)(=O)c1cc(Cl)sc1Cl` [CBK045448], the “% of control remaining” value was 56.619.

`O=C(N[C@@H](Cn1cc(Cl)c(=O)[nH]c1=O)C(=O)O)C1CCCCC1` [CBK289648]: the “% of control remaining” value was determined as 129.259.

In the case of `CC(=S)NCC1CC(c2ccc(N3CC[S+]([O-])CC3)c(F)c2)=NO1` (stereo not shown) [CBK017992], the “% of control remaining” value came to 55.7962.

Regarding `COc1nc(OC)nc(OC2=CC(=O)CC(C)(C)C2)n1` [CBK020772], the “% of control remaining” value is given as 83.8185.

On to `O=C(O)c1cc(-c2ccc(-c3ccc(Cl)c(C(F)(F)F)c3)o2)nc2ccc(F)cc12` [CBK300501], for which the “% of control remaining” value stood at 119.549.

On to `CCOC(=O)N1CCN(C2CCCN(Cc3cnc(N(C)C)s3)C2)CC1` (stereo not shown) [CBK307041], for which the “% of control remaining” value is recorded as 103.367.

Take `CC(=O)NCC1CC(=O)N(c2ccc(Br)cc2)C1` (stereo not shown) [CBK008134]: the “% of control remaining” value is on record as 118.817.

As for `O=C(CCN1C(=O)COc2ccccc21)NCCCN1CCN(c2ccccc2F)CC1` [CBK294469], the “% of control remaining” value turned out to be 109.166.

For the molecule `CCn1nc(C)c(CN2CCCC(c3cc4cccnc4[nH]3)C2)c1C` (stereo not shown) [CBK284977], the “% of control remaining” value is 94.7397.

Take `Cc1ccc(CN(CCCN(C)C)Cc2cnc(C)n2C)o1` [CBK283188]: the “% of control remaining” value was found to be 101.943.

On to `O=C1NC(=S)N/C1=C/c1cc2c(cc1Cl)OCO2` [CBK261818], for which the “% of control remaining” value came to 71.1347.

On to `O=C(O)c1cccc(NC(=O)c2cnc(-c3ccccc3)c(-c3ccco3)c2)c1` [CBK036710], for which the “% of control remaining” value came out at 122.406.

Take `O=C(C[S+]([O-])c1nc2ccccc2[nH]1)N1CCOCC1` (stereo not shown) [CBK016397]: the “% of control remaining” value is listed as 100.849.

As for `CCOc1ccc(S(=O)(=O)N2CCC(C(=O)N3CCOCC3)CC2)cc1Cl` [CBK270288], the “% of control remaining” value came to 124.78.

Turning to `CN1CCC(C(=O)Nc2cccc(Cn3cccn3)c2)C1` (stereo not shown) [CBK281991], the “% of control remaining” value is listed as 92.4762.

In the case of `O=C(Nc1ccc2[nH]c(C3CCCCC3)nc2c1)C1CCCCC1` [CBK020680], the “% of control remaining” value was 60.9375.

For the molecule `COc1nccnc1/C=C/c1ccccc1` [CBK106876], the “% of control remaining” value came out at 90.8473.

Take `c1ccc(CC(NCc2c[nH]c3ccccc23)c2ccccc2)cc1` (stereo not shown) [CBK262087]: the “% of control remaining” value is reported as 76.6872.

Consider `CCC(CN1CCOCC1)NC(=O)Cc1c(C)[nH]c2ccc(F)cc12` (stereo not shown) [CBK282774], for which the “% of control remaining” value is recorded as 105.477.

For the molecule `Cc1ncsc1CCOc1nc2cc(Cl)c(Cl)cc2nc1NC(C)C` [CBK115744], the “% of control remaining” value is 103.807.

Regarding `O=c1[nH]c2ncc(-c3cccc(OC(F)(F)F)c3)nc2n1C1CCCCC1` [CBK064187], the “% of control remaining” value stood at 117.408.

On to `O=CN1CCc2c([nH]c3ccccc23)C12CCCN(Cc1ccc(C(F)(F)F)cc1)C2` (stereo not shown) [CBK039587], for which the “% of control remaining” value turned out to be 97.5608.

`COc1cc(C(=O)N2CCC3(CC2)NC(=O)c2cc(C)ccc2O3)ccc1C` [CBK166276]: the “% of control remaining” value came to 65.7705.

As for `COc1cccc(OC)c1-c1cn2ccnc2c(NCCc2ccccn2)n1` [CBK066173], the “% of control remaining” value is 86.6959.

As for `O=C(CN(Cc1ccccc1Cl)S(=O)(=O)c1ccc(Cl)cc1)NC1CCCCC1` [CBK264659], the “% of control remaining” value is 99.0998.

Regarding `CCCNC(=O)Nc1ccc(Cl)c(C(=O)O)c1` [CBK287009], the “% of control remaining” value worked out at 103.523.

On to `O=C(CCCSC1=NC(C(F)(F)F)CC(c2ccco2)N1)Nc1ccc(Cl)c(Cl)c1` (stereo not shown) [CBK268858], for which the “% of control remaining” value is 100.678.

With `CCc1nc(N)nc(N2CCC3(CCC(CNC(C)=O)O3)CC2)c1C` (stereo not shown) [CBK307168], the “% of control remaining” value is on record as 40.9718.

For the molecule `Cc1ccc(S(=O)(=O)N(CC(=O)N2CCN(C)CC2)Cc2ccc(Cl)cc2Cl)cc1` [CBK265144], the “% of control remaining” value is 116.689.

For the molecule `O=C(CC1(O)C(=O)N(CCc2ccccc2)c2ccc(Br)cc21)c1ccncc1` (stereo not shown) [CBK293976], the “% of control remaining” value was determined as 115.231.

With `CCNc1cncc(-c2ccc(OC)cc2)n1` [CBK065370], the “% of control remaining” value was 117.915.

Take `CCn1nc(C)c(-c2cncn2CCn2nc(C)c(Cl)c2C)c1C` [CBK281768]: the “% of control remaining” value is 107.284.

As for `COc1c(C)cccc1C(=O)NC(=S)Nc1sc2c(c1C(N)=O)CCC2` [CBK265587], the “% of control remaining” value is 102.416.

Take `C#CCNC(=O)[C@@H]1Cc2cn(Cc3nccn3C)c3cccc(c23)[C@H](CC(C)C)N1` [CBK289424]: the “% of control remaining” value is reported as 101.926.

In the case of `Cc1ccc2[nH]c3c(c2c1)CCNC31CCN(CC2CCCCO2)CC1` (stereo not shown) [CBK039545], the “% of control remaining” value was 64.3335.

For `Cc1ccc(F)c(S(=O)(=O)NC(C)Cc2ccccn2)c1` (stereo not shown) [CBK281427], the “% of control remaining” value stood at 95.8154.

For the molecule `O=C(OCc1ccccc1)N1CCC(C2OCc3cc(-c4ccc(C(=O)N5CCCCC5)cc4)ccc3O2)CC1` (stereo not shown) [CBK153262], the “% of control remaining” value is given as 84.1888.

Consider `O=C(CC1CCCCC1)Nc1snnc1-c1ccc(Cl)cc1` [CBK153245], for which the “% of control remaining” value is reported as 109.916.

In the case of `CCN(CC)CCN1C(=O)C(O)=C(C(=O)c2cc3ccccc3o2)C1c1ccccn1` (stereo not shown) [CBK266413], the “% of control remaining” value is 121.769.

With `CN1CCN(c2ccc(NC(=O)c3ccc(OCc4ccccc4)cc3)cc2Cl)CC1` [CBK269080], the “% of control remaining” value turned out to be 65.4641.

Regarding `COc1cccc(OC)c1-c1cn2ccnc2c(N[C@H](CO)C(C)C)n1` [CBK036586], the “% of control remaining” value came to 71.9898.

With `CN1CCN(N/C=C2/C(=O)N(c3ccc([N+](=O)[O-])cc3)N=C2c2ccccc2)CC1` [CBK262763], the “% of control remaining” value stood at 89.1146.

In the case of `CCOC(=O)c1c(NC(=O)Cn2cnc([N+](=O)[O-])n2)sc2c1CCC2` [CBK263042], the “% of control remaining” value is given as 107.429.

As to `CC(C)n1cc(CN2CCNC(=O)C2c2ccccc2C(F)(F)F)nn1` (stereo not shown) [CBK304732], the “% of control remaining” value was 90.0091.

For `Cc1ccc([N+](=O)[O-])cc1/C=C(/C#N)c1nc2ccccc2s1` [CBK267085], the “% of control remaining” value stood at 62.2669.

Take `O=C(Nc1ccc2nonc2c1)N1CCOCC1` [CBK057530]: the “% of control remaining” value came to 64.9747.

Regarding `CCOc1cc(C=Cc2cc(C(=O)O)c3ccccc3n2)ccc1OC(F)F` [CBK296952], the “% of control remaining” value was 93.1197.

Turning to `CSc1nc2ccccc2c2nc(-c3ccncc3)nn12` [CBK288566], the “% of control remaining” value is recorded as 84.4184.

Regarding `COc1ccc(N2C(=S)N(CC3CCCCC3)[C@H]3[C@H]4OC(=O)[C@H](C[C@H]4O)[C@H]32)cc1` [CBK288939], the “% of control remaining” value came to 123.072.

In the case of `CCn1c2ccccc2c2cc(CN(C)Cc3ccccc3)ccc21` [CBK261901], the “% of control remaining” value was found to be 89.7434.

As for `CCCCN(C(C)=O)c1c(CC)nc2ccc(C(=O)N(C)CCN(C)C)cn12` [CBK145739], the “% of control remaining” value is 94.9772.

For `O=C(c1ccc2ncccc2c1)N1CCN(Cc2ccccc2)CC1` [CBK200175], the “% of control remaining” value is 119.602.

`C[S+]([O-])c1sc(Cl)c2c1C(=O)CCC2` (stereo not shown) [CBK005657]: the “% of control remaining” value is given as 50.7169.

As for `CC(=O)N1CCc2cc(-c3cc4ccccn4c3)ccc21` [CBK285224], the “% of control remaining” value was 99.4216.

`Cc1cc(O)cc(C2CCCN(C(=O)c3ccc(F)c(F)c3)C2)n1` (stereo not shown) [CBK283406]: the “% of control remaining” value turned out to be 102.695.

With `CCCc1ccc(C(C)NC(=O)C2CC2C)cc1` (stereo not shown) [CBK057847], the “% of control remaining” value is 93.7782.

Consider `CCC(CN1CCN(C)CC1)NC(=O)Cc1ccc2c(c1)CCC2` (stereo not shown) [CBK282784], for which the “% of control remaining” value came to 93.9043.

As to `CN(C)CCN(C)c1cncc(-c2cccc(N)c2)n1` [CBK065270], the “% of control remaining” value was 111.491.

Take `CCOC(=O)c1cnn2c(O)cc(CN3CCCCC3)nc12` [CBK305585]: the “% of control remaining” value was 105.964.

As to `O=S(=O)(Nc1cccnc1)N1CCOCC1` [CBK269362], the “% of control remaining” value came out at 89.0352.

Regarding `COC(=O)c1ccsc1NS(=O)(=O)c1ccc(Br)cc1` [CBK039058], the “% of control remaining” value worked out at 102.51.

Take `COc1ccccc1CNCCCN1CCOCC1` [CBK278310C]: the “% of control remaining” value is listed as 109.953.

With `CN(C)Cc1ccc(C(=O)NCC(C)(C)N2CCCCC2)cc1` [CBK281865], the “% of control remaining” value came out at 90.077.

Regarding `Cn1cc(CCC(=O)NC(Cc2ccncc2)[C@H]2C[C@H](O)C2)cn1` (stereo partly shown) [CBK307292], the “% of control remaining” value was found to be 95.0618.

Turning to `O=C(CN(c1ccccc1)S(=O)(=O)c1ccccc1[N+](=O)[O-])NC1CCCCC1` [CBK262328], the “% of control remaining” value stood at 97.1005.

For `NC(=O)CCN1CCCC2(CCN(C(=O)c3ccoc3)C2)C1` (stereo not shown) [CBK132816], the “% of control remaining” value came to 92.3157.

Consider `NS(=O)(=O)c1ccc(Nc2nc(-c3ccccc3)c(CC(=O)O)s2)cc1` [CBK131899], for which the “% of control remaining” value is reported as 86.6933.

`COc1ccc(N2C(=O)CC(NCCNc3ccc([N+](=O)[O-])cn3)C2=O)cc1` (stereo not shown) [CBK263593]: the “% of control remaining” value came to 101.317.

Turning to `Cc1cnn(C2CCCN(C(=O)CC3C(=O)Nc4ccccc43)C2)c1` (stereo not shown) [CBK304930], the “% of control remaining” value was 40.057.

As to `O=C(NC/C=C/c1cn(C2CC(O)C(CO)O2)c(=O)[nH]c1=O)C(F)(F)F` (stereo not shown) [CBK201249], the “% of control remaining” value is given as 105.57.

As for `O=C(NNC(=O)c1ccccc1C(=O)O)c1cccc(Cl)c1` [CBK261658], the “% of control remaining” value turned out to be 119.218.

With `CCN1CCN(c2ccc(NC(=O)c3ccc([N+](=O)[O-])c(C)c3)cc2)CC1` [CBK266503], the “% of control remaining” value came to 139.013.

Consider `CCn1cc(C(C)NC(=S)Nc2ccc(OC)cc2OC)c(C)n1` (stereo not shown) [CBK266950], for which the “% of control remaining” value came out at 102.588.
